# In US20210261667A1 (SHANGHAI NOVAMAB BIOPHARMACEUTICALS, published 2021):
# B1: humanized tetravalent anti-PD-L1 single-domain antibody (Fc fusion)
# chain: QVQLQESGGGLVQPGGSLRLSCTASGYNLSPSCMGWFRQAPGKGLEGVAFTDADGSTRYADSVKARFTISRDNSKNTLYLQMNSLRAEDTAVYYCAADFFSYCSVVFRASARDKYRGQGTLVTVSSGGGSGGGSQVQLQESGGGLVQPGGSLRLSCTASGYNLSPSCMGWFRQAPGKGLEGVAFTDADGSTRYADSVKARFTISRDNSKNTLYLQMNSLRAEDTAVYYCAADFFSYCSVVFRASARDKYRGQGTLVTVSS[gap - human IgG1 Fc with changes]
# notes: two chains joined by disulfide bonds between the Fc fragments; also called humanized tetravalent PD-L1 single-domain antibody; humanized tetravalent single-domain antibody
# Tests used:
# [1] = biological target: T1, PD-L1 expressed on the cell surface (HEK293F transiently transfected; A375/PD-L1 stably transfected cells) (UniProt Q9NZQ7); test: flow cytometry, competition with hPD-1(ECD)-Fc-Biotin on A375/PD-L1 cells
# T1 construct: whole, on cells; also called PD-L1 stably transfected cells A375
# hPD-L1(ECD)-Fc = biological target: T2, hPD-L1(ECD)-Fc (human, UniProt Q9NZQ7 part only); test: BLI (ForteBio Octet), Protein A probe
# T2 construct: extracellular domain; also called antigen protein hPD-L1(ECD)-Fc; not shown: Fc
# Chain of hPD-L1(ECD)-Fc (Q9NZQ7 19-238): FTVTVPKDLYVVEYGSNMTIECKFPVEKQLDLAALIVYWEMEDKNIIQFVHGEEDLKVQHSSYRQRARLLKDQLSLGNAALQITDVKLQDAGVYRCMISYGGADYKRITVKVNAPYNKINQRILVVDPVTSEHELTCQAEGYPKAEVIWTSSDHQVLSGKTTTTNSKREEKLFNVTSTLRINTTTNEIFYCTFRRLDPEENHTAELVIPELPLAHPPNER
binder,measurement,setting,value
B1,IC50,[1],0.65 µg/mL
same,Kd,hPD-L1(ECD)-Fc,7.03 nM
